These are yes or no findings as the source states them, for the method shown. For some of these results: Binding seen in cells or lysates may run through a third protein. Some results given as binding are weak or reduced against the parent protein; the word gives no strength. For some of these results: Tags and fused reporters may be left off the sequences shown.

Amino acid sequences for entries named in this document (tags omitted). A change or cut given only in a name is not applied to a line headed by its entry. Residues count along the entry.
UniProt Q9BSR8: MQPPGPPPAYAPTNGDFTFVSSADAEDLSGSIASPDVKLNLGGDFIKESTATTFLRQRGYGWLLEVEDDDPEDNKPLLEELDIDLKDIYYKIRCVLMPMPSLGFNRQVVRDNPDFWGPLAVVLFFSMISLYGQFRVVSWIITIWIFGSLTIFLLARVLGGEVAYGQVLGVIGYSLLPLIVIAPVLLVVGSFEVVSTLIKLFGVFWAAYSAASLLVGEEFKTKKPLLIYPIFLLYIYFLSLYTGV
FLAG-YIPF4 truncation mutant 1–223: residues 1-223 of Q9BSR8
FLAG-YIPF4 truncation mutant 1–195: residues 1-195 of Q9BSR8
FLAG-YIPF4 truncation mutant 1–166: residues 1-166 of Q9BSR8
FLAG-YIPF4 truncation mutant 1–117: residues 1-117 of Q9BSR8
UniProt P03129: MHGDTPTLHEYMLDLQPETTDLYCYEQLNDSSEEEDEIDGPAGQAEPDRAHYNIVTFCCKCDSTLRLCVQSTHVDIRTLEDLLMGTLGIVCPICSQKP
UniProt P03126: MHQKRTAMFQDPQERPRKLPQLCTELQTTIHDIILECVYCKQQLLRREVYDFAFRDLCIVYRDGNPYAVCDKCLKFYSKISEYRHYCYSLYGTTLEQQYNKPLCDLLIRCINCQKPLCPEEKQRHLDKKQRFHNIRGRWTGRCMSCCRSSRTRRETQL
UniProt P06460: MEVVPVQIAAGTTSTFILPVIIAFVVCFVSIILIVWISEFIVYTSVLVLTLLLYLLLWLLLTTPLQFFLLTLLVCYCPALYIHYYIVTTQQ

In experiment [1] the target is FLAG-YIPF4 (wild-type, 1–244) (human) (UniProt Q9BSR8). Description: co-IP; HEK293T lysates, proteins co-expressed; FLAG-YIPF4 or its truncations as bait, precipitated with FLAG antibody/FLAG beads; blots for GFP and FLAG; binding buffer 50 mM Tris/Cl pH 7.4, 100 mM KCl, 0.2% NP40; 1 h at RT.
The target of experiment [2] is 16E5 bait, fused to the C-terminus of the DNA binding domain of GAL4 (Human papillomavirus type 16 (HPV16)) (UniProt P06927). Description: two-hybrid; semi-automated screen; 16E5 bait on the GAL4 DNA binding domain (pGBKT7, AH109) against HeLa and human testis epithelial cell prey libraries (pGADT7, Y187); SD media lacking leucine, tryptophan and histidine, with 3-AT; data not shown.

Experiment [3] has as its target GFP-16E5 fusion protein (HPV16 E5, 1–83, full-length) (Human papillomavirus type 16 (HPV16)) (UniProt P06927). Description: co-IP; HEK293T lysates; precipitated with a GFP antibody coupled to beads (dynabeads protein G); blots for GFP and FLAG; binding buffer 50 mM Tris/Cl pH 7.4, 100 mM KCl, 0.2% NP40; 1 h at RT.
Experiment [4] deals with GFP-16E5 truncation mutant 1–54 (Human papillomavirus type 16 (HPV16)) (UniProt P06927). Briefly: co-IP; lysates of co-transfected HEK293T cells; GFP-TRAP precipitation; precipitates probed for GFP fusions and for the FLAG epitope.
Experiment [5] deals with GFP-16E5 fusion protein (HPV16 E5, 1–83, full-length) (Human papillomavirus type 16 (HPV16)) (UniProt P06927). The description is as above.
In experiment [6] the target is FLAG-YIPF4 (wild-type, 1–244) (human) (UniProt Q9BSR8). Description: co-IP; C33A lysates; precipitated with a YIPF4 antibody (dynabeads protein G); binding buffer 50 mM Tris/Cl pH 7.4, 100 mM KCl, 0.2% NP40; 1 h at RT.
Experiment [7] deals with endogenous YIPF4 (human (endogenous in C33A)) (UniProt Q9BSR8). The experiment is described as above.
Experiment [8] deals with FLAG-YIPF4 truncation mutant 1–138 (human) (UniProt Q9BSR8). Description: co-IP; HEK293T lysates, proteins co-expressed; FLAG-YIPF4 or its truncations as bait, precipitated with FLAG antibody/FLAG beads; blots for GFP and FLAG; binding buffer 50 mM Tris/Cl pH 7.4, 100 mM KCl, 0.2% NP40; 1 h at RT.
Experiment [9] addresses FLAG-YIPF4 truncation mutant 1–166 (human) (UniProt Q9BSR8). Described as above.
Experiment [10] deals with FLAG-YIPF4 truncation mutant 1–117 (human) (UniProt Q9BSR8). The description is as above.
The target of experiment [11] is FLAG-YIPF4 truncation mutant 1–195 (human) (UniProt Q9BSR8). Described as above.
Experiment [12] addresses FLAG-YIPF4 truncation mutant 1–223 (human) (UniProt Q9BSR8). Described as above.
In experiment [13] the target is FLAG-YIPF4 (wild-type, 1–244) (human) (UniProt Q9BSR8). The experiment is described as above. This is another data set of the same source.

“GFP-16E5 truncation mutant 1–54 (from UniProt P06927 1-54) (domain or fragment)”: the binding entry in experiment [1] is reported as “binds”.

In the case of “YIPF4 prey, fused to the GAL4 activation domain (from UniProt Q9BSR8 1-244)”, the binding entry in experiment [2] is given as “binds”.

For the molecule “GFP fusion protein of 16E7 (from UniProt P03129 1-98)”, the binding result in [1] was “no binding”.

“FLAG-YIPF4 (wild-type, 1–244) (from UniProt Q9BSR8 1-244)”: the binding entry in experiment [3] is recorded as “binds”.

In the case of “GFP fusion protein of 16E6 (from UniProt P03126 1-158)”, the binding entry in experiment [1] is “no binding”.

As to “FLAG-YIPF4 truncation mutant 1–138 (from UniProt Q9BSR8 1-138) (domain or fragment)”, the binding entry in [4] and in [5] was “binds” in each case.

For the molecule “GFP-16E5 fusion protein (HPV16 E5, 1–83, full-length) (from UniProt P06927 1-83)”, the binding entry is “binds” in [6]; “binds” in experiment [7]; “binds” in [1]; “binds weakly” in [8]; “binds” in [9]; “no binding” in experiment [10]. Moreover, the binding result in experiment [11] and in experiment [12] was “binds” in each case.

As to “FLAG-optineurin (from UniProt Q96CV9 1-577)”, the binding entry in experiment [3] was “no binding”.

As to “GFP-16E5 truncation mutant 1–79 (from UniProt P06927 1-79) (domain or fragment)”, the binding entry in experiment [1] is listed as “binds”.

Take “GFP fusion of HPV6b E5a (6bE5a) (from UniProt P06460 1-91)”: the binding result in experiment [1] is “binds”.

With MPNLWFLLFLGLVAAMQLLLLLFLLLFFLVYWDHFECSCTGLPF (peptide, UniProt P0CK45 1-44) [GFP fusion of BPV1 E5], in [13], the binding result is on record as “binds”.

The values are drawn from article PMC4522686.
